Results: PMC4336329 (PLoS ONE, 2015)
Screen size: about 310,000 compounds; about 14,000 (4.5%) showed an effect of 50% or more. Effects have a minus sign here. Some of the results follow.

Target: human ether-à-go-go-related gene (hERG) potassium channel (human, UniProt Q12809)
Test: primary screen, population patch clamp on CHO cells stably expressing hERG
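Further: peak tail current of the secondary pulse compared with the same well before compound.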

Chain of human ether-à-go-go-related gene (hERG) potassium channel (Q12809 whole entry, looked up): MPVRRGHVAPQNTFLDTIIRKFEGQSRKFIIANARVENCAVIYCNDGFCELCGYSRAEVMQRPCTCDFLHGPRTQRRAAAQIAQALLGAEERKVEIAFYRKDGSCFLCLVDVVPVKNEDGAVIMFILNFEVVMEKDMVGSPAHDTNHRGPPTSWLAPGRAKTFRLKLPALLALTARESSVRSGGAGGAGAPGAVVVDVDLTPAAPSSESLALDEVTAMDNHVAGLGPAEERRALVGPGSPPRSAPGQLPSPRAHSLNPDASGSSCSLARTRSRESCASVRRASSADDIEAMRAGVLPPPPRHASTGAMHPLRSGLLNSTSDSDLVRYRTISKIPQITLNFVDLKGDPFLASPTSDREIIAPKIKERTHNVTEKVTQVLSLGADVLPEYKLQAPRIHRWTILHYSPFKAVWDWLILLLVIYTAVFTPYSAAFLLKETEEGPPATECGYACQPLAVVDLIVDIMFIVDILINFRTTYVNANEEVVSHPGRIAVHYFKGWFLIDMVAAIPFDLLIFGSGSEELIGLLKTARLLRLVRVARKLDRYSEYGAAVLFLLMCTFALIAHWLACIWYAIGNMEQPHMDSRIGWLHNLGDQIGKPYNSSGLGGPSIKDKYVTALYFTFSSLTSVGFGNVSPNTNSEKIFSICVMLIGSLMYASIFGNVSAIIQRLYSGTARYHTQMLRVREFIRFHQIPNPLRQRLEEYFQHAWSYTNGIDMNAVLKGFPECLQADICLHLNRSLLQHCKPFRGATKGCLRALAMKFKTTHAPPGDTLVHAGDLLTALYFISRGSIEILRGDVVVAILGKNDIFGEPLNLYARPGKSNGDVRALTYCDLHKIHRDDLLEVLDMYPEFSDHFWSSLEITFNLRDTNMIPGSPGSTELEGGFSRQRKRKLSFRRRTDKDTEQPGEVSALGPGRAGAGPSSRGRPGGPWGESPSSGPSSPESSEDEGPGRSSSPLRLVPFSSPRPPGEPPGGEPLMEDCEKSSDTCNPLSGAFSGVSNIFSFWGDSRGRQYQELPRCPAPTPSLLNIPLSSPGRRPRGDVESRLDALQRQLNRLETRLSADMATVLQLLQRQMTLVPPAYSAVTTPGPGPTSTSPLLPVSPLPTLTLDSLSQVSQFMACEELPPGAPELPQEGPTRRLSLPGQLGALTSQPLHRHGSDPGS

Compound | hERG current change (%, negative = inhibition) at 10uM [%]
CCC(=O)Nc1ccc2oc(-c3cccnc3)nc2c1 | 9.1
CN1C(=O)C(=Cc2cn(CC(=O)N3CCCCC3)c3ccccc23)C(=O)N(C)C1=O | -0.441
Cc1cccc(-c2ocnc2C(=O)Nc2ccccc2NC(=O)c2ccccn2)c1 | -15.8
O=C(NNC1=Nc2ccccc2SC1)c1cccc([N+](=O)[O-])c1 | -11.5
CC(C)c1ccc(CNc2ccc(N3CCOCC3)cc2)cc1 | 11.5
CC(C)CN1CCC(=O)N(CCC#N)CC1 | -7.02
COC(=O)C1CCCN1C(=O)c1cccs1 (stereo not shown) | 8.3
Cc1ccc(OCCCn2ccnc2)c(Br)c1 | -2.06
CCOC(=O)C1(CCc2ccccc2)CCN(Cc2ccccn2)CC1 | -74.3
O=C(NCCCn1ccnc1)NC(C(F)(F)F)C(F)(F)F | 3.68
Cn1ncc2c(Nc3ccc(Cl)cc3)ncnc21 | 3.42
O=C(CN1CCN(C(=O)C2CCCO2)CC1)Nc1ccc(Cl)c(Cl)c1 (stereo not shown) | -22.5
O=C(COc1ccc(Cl)cc1)N1CCN(Cc2ccc([N+](=O)[O-])cc2)CC1.O=C(O)C(=O)O | -74.2
CC(OC(=O)c1ccc(O)cc1)C(=O)Nc1nc(-c2ccccc2)cs1 (stereo not shown) | -17.8
OCCCCC#Cc1c(-c2ccsc2)sc2ccccc12 | 0.229
Cc1ccc(NC(=O)CN2C(=O)NC(C)(c3ccc(Cl)cc3)C2=O)cc1 (stereo not shown) | 16.1
CC(=O)Nc1c2c3c(cccc3n(C)c1=O)C(=O)c1ccccc1-2 | -3.24
CCOC(=O)c1c(NC(=O)C2C3C=CC(C3)C2(C)C(=O)O)sc2c1CCCC2 (stereo not shown) | -1.33
Clc1ccc(-c2n[nH]c3c2CCC3)cc1Cl | 20.4
CCCn1c(=N)n(CC(O)c2ccc(C)cc2)c2ccccc21.Cl (stereo not shown) | -65.6
CCCCNC(=O)CS(=O)Cc1nc(-c2cccs2)oc1C (stereo not shown) | -21.1
CCC(CC)NC(=O)Nc1ccc(F)c(Cl)c1 | -7.65

Compound | hERG current change (%, negative = inhibition) at 10uM [%]
N=c1c2c3c(sc2ncn1Nc1ccccc1)CCC3 | -29.6
NC(=O)c1nsc(C(=O)N(Cc2cccnc2)C(C(=O)NCc2ccc(F)cc2)c2ccc(O)cc2)c1N (stereo not shown) | -1.96
Nc1c(N(Cc2ccccc2)C(=O)COc2ccc(F)cc2)c(=O)[nH]c(=O)n1Cc1ccccc1 | 9
CN1CCN(c2ccc(/C=C3\C(=O)NC(=S)N(c4cccc(Br)c4)C3=O)o2)CC1 | -23.9
CCCCc1ccc(NC2=NCC(=O)N2CCc2ccccc2)cc1.Cl | -11.4
O=C(Cc1nnc(NC(=O)Nc2ccccc2)s1)NCc1ccccc1 | 13.4
O=C(C[n+]1cc(-c2ccccc2)n2c1CCC2)c1cccs1.[Br-] | -3.31
C[C@H](NC(=O)c1[nH]cnc1C(=O)N[C@H](C)c1ccccc1)c1ccccc1 | 5.82
COc1ccc(NC(=O)c2ccc(Cc3ccc(C)cc3)o2)cc1 | -23.5
COc1cccc(NC(=O)CSc2ncc(S(=O)(=O)c3ccccc3)c(=O)[nH]2)c1 | -3.71
CCOCCCNC(=O)C1CCN(S(=O)(=O)c2ccc(C)cc2)CC1 | 8.68
O=C(N/N=C/c1ccncc1)c1cccc(N/N=C/c2ccncc2)c1 | -15.6
O=C1c2ccccc2C(Nc2ccc3c(c2)OCO3)N1Cc1ccc2c(c1)OCO2 (stereo not shown) | 2.04
Cc1cccc(CCNC(=O)c2cc(S(=O)(=O)N3CCOCC3)cn2C)c1 | -19.1
COc1cc(C)ccc1S(=O)(=O)n1nc(C)cc1C | 14.3
COc1ccc(-n2cc(C(=O)c3ccc4ccccc4c3O)cn2)cc1 | 24.3
O=C(Cc1ccccc1[N+](=O)[O-])OCc1cccc([N+](=O)[O-])c1 | -12.1
CC(=O)N1CCc2cc(Br)cc(S(=O)(=O)N3CCN(C(=O)c4ccco4)CC3)c21 | -7.03
COc1cccc(CN2CCN(C(=O)c3cc(-c4ccncc4)nc4ccc(C)cc34)CC2)c1 | -71
COc1ccc(Cl)cc1NC(=O)c1cnc2n(c1=O)CCS2 | -1.56
CC(C)(C)n1nc(-c2ccc(F)cc2)c2c(N)ncnc21 | -4.74
O=C(NCc1ccc(Cl)cc1)C1=Cc2cc(Cl)ccc2OC1 | -10.2

Compound | hERG current change (%, negative = inhibition) at 10uM [%]
O=C(/C=C/c1ccccc1)N/C(=C/c1ccccc1)C(=O)NCCO | -11.6
CN(C)S(=O)(=O)c1cccc(CSc2cccc[n+]2[O-])c1 | 7.51
CSc1nnc(C)c(/C=C/Nc2ccc(C)cc2)n1 | 3.85
COCCCNCCCCOc1c(Cl)cc(C)cc1Br.O=C(O)C(=O)O | -49.2
O=C(CSc1nnnn1-c1cccc(F)c1)Nc1nc2ccccc2s1 | 8.36
CC(C)C[C@@]12C(=O)N(c3cccc(F)c3)C(=O)N1[C@H](c1ccc(Cl)cc1)[C@@H]1C(=O)N(C3CCCCC3)C(=O)[C@@H]12 | 13.2
C=C(C)CNC(=O)c1ccc2nc(Cc3ccc(OC)cc3)oc2c1 | 13.3
O=S(=O)(Nc1nc2ccccc2nc1NCC1CCCO1)c1ccc(F)cc1 (stereo not shown) | -1.06
CC(C)c1ccc(NC(=O)Cn2nnc(C(=O)NCc3ccco3)c2N)cc1 | 28.9
COc1ccc(-n2nnnc2SCC(=O)Nc2cccc(O)c2)cc1 | -4.09
CCCn1c(=O)c(C(=O)Nc2ncccc2O)c(O)c2ccccc21 | 11.1
COc1ccc(/C=N/OCC(=O)N2CC3(C)CC2CC(C)(C)C3)cc1 (stereo not shown) | -56
CCc1nc2ccc(C(=O)N3CCN(c4cccc(Cl)c4)CC3)cc2nc1CC | 1.12
CC(=O)c1cccc(NC(=O)CN2CCc3cc4c(cc3C2C)OCCCO4)c1 (stereo not shown) | -27.8
CN(C(=O)C1CC1)C1CCS(=O)(=O)C1 (stereo not shown) | 14.7
CCN(CC)CCOC(=O)C1(c2ccc([N+](=O)[O-])cc2)CCCC1.Cl | -48.6
Cc1ccc(N2C(=O)c3ccccc3C2=O)cc1 | 11.1
COc1ccccc1NC(=O)C(=O)N/N=C(\C)CC(=O)Nc1ccccn1 | 10.8
CC(=O)c1ccccc1C(=O)N(C)C1CCCN(Cc2ccccc2F)C1 (stereo not shown) | 15.2
C[C@H](NC(=O)c1[nH]cnc1C(=O)Nc1ccccc1)c1ccccc1 | 3.23
CCCC(=O)NC(=S)Nc1sc2c(c1C(N)=O)CCC2 | 11.7
COc1ccccc1N(CC(=O)Nc1ccc(S(=O)(=O)N2CCOCC2)cc1)S(C)(=O)=O | 3.87

Compound | hERG current change (%, negative = inhibition) at 10uM [%]
CC(C)C1Cc2c(sc3c2c(=O)n(Cc2ccccc2)c2nncn32)CO1 (stereo not shown) | -11
COc1cccc(CNC(=O)CN(C)S(=O)(=O)c2ccc3c(c2)CC(C)N3C(C)=O)c1 (stereo not shown) | 23.3
O=C(Nc1ccccc1)N1CCc2scc[n+]2-c2ccccc21.[Br-] | 6.01
Cc1cc(C(=O)Cn2c(CO)nc3ccccc32)c(C)n1C | 26.7
O=C(O)c1ccc(N2CCCCC2)cc1 | 7.42
COC(=O)Nc1nnc(-c2ccccc2Cl)s1 | 0.0234
N#Cc1cnc2nc(SCc3ccccc3)nn2c1 | 9.96
COc1cc(C2C(C(=O)c3cccs3)=C(O)C(=O)N2CCN2CCOCC2)cc(OC)c1OC (stereo not shown) | 14.3
O=C1NC2(CCCCC2)N=C1c1ccc(F)cc1 | -2.35
CCC(=NC1CCN(Cc2ccccc2)CC1)c1c(O)[nH]c(=O)[nH]c1=O | -52.4
COC(=O)c1ccc(C2Nc3cccc4cccc(c34)N2)cc1 | -5.77
COc1cccc2c1cc1c(=O)n(CC(=O)NCc3ccccn3)nc(C)n12 | 13.4
CCCC(=O)Nc1ccc(Cl)c(NC(=O)CC)c1 | 4.92
Cc1ccnc(NC(=O)c2ccco2)n1 | 3.69
CCc1nnc(NS(=O)(=O)c2ccc(NC(=O)c3cccc(Cl)c3)cc2)s1 | 2.1
CN(C)S(=O)(=O)c1cccc(NC(=O)COc2nc3ccccc3nc2N2CCOCC2)c1 | -22.4
CC(C)N(C(=O)c1ccc2nc(-c3ccccc3)c(-c3ccccc3)nc2c1)C(C)C | -4.73
Cc1nc(=O)c(-c2ccccc2)c(C)n1-c1ccc(C(=O)O)cc1 | 10.1
COCCn1c(=NC(=O)CCS(=O)(=O)c2ccccc2)sc2cc(C)ccc21 | 0.609
CC(=O)NCCC(=O)NCc1ccc(F)cc1 | -13.7
NC(=O)c1cc(S(=O)(=O)NCCCc2ccco2)cs1 | 12.8
COc1ncc(-c2ccc3c(c2)S(=O)(=O)c2cccc(C(=O)NCc4ccco4)c2C3=O)cn1 | 0.598
